Assay results as given in article PMC4336329 (PLoS ONE, 2015).
Among all 310,000 compounds or so, about 14,000 (4.5%) showed an effect of 50% or more. The effect is printed as a negative number. This is one part of the list.

Molecular target: human ether-à-go-go-related gene (hERG) potassium channel (human, UniProt Q12809)
Assay: primary screen, population patch clamp on CHO cells stably expressing hERG
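Note: peak tail current of the secondary pulse compared with the same well before compound.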

human ether-à-go-go-related gene (hERG) potassium channel, sequence (Q12809 whole entry, looked up): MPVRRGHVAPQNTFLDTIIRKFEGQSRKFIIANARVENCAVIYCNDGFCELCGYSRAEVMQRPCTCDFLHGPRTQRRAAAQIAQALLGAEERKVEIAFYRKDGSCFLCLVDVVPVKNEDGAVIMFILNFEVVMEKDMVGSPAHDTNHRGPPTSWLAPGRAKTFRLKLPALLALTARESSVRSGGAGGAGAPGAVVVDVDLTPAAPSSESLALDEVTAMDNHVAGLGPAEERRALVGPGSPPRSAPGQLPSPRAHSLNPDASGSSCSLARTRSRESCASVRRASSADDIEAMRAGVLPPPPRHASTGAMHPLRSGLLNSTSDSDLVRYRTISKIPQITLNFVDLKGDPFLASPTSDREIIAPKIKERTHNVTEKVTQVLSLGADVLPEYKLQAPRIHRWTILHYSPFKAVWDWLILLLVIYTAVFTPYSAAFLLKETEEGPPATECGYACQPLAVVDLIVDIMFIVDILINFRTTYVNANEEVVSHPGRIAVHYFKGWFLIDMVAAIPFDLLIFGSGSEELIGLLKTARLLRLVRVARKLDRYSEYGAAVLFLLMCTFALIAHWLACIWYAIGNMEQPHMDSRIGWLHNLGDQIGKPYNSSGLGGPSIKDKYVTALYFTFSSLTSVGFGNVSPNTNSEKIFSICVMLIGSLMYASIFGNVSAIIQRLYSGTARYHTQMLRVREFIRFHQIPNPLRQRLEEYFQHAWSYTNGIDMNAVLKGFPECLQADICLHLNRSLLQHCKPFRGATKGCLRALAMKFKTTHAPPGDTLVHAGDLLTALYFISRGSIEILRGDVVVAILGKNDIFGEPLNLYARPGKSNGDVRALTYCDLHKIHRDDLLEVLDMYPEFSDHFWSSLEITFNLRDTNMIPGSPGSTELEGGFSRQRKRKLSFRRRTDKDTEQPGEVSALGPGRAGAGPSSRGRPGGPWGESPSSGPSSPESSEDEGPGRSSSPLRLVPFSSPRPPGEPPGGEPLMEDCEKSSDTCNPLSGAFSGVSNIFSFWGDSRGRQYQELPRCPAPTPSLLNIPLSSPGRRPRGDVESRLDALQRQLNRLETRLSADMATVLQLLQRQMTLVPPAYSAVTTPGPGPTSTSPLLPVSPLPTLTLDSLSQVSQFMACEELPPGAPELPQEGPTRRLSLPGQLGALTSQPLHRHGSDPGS

SMILES	hERG current change (%, negative = inhibition) at 10uM [%]
Clc1ccc(/C=N/Nc2ncnc3nc[nH]c23)cc1	-33.6
C=CCNCCCCOc1c(Cl)cc(C)cc1Br.O=C(O)C(=O)O	-31.7
Cc1ccccc1C(=O)Nc1ccnn1C1CCN(Cc2cnn(C(C)C)c2)CC1	-72.3
Cc1onc(-c2ccccc2)c1C(=O)N1CCN(S(=O)(=O)c2ccc(Cl)cc2)CC1	-21.5
COc1cc(C(c2sc3nc(C)nn3c2O)N2CC(C)CC(C)C2)cc(OC)c1OC (centres unmarked)	-1.84
Cc1cc(C(=O)CSc2n[nH]c(N)n2)c(C)n1-c1ccc(F)cc1	-1.14
Cc1ccc[n+](CC(=O)c2ccc(Br)cc2)c1C.[Br-]	-4.55
Cc1cc(C)n(-c2ccc(-n3ccnc3)nn2)n1	-4.08
O=C(c1ccc(Cl)c(Cl)c1)N1CCN(Cc2ccc3c(c2)OCO3)CC1	-35.7
CN1CCN(CC(=O)Nc2c(C(=O)C3CC3)oc3ccccc23)CC1	-52.4
O=C(CN(Cc1ccc2c(c1)OCO2)C(=O)CNS(=O)(=O)c1ccccc1)NCC1CCCO1 (centres unmarked)	7.4
Cc1ccc(NC(=O)CSc2ccc(C(N)=O)cc2[N+](=O)[O-])cc1	1.12
O=C(NC1CCCCC1)C1CCN(S(=O)(=O)c2cccc3nonc23)CC1	5.97
CCCOc1ccc(-c2cn3ccccc3n2)cc1[N+](=O)[O-]	-5.57
CNc1oc(-c2ccc(Cl)cc2)nc1P(=O)(c1ccccc1)c1ccccc1	12.6
O=C(NNC(=O)C1C2CCC(C2)C1C(=O)O)c1ccc(Cl)cc1 (centres unmarked)	16
CCOC(=O)C(C)Sc1nc(-c2ccccc2)nc2ccccc12 (centres unmarked)	17.5
Cc1ccccc1OCC(=O)Nc1ccc2c(c1)COC2=O	-4.65
CCC(=O)c1ccc(OCC(=O)Nc2ccc3nc(C)sc3c2)cc1	6.06
O=C(Cc1ccc([N+](=O)[O-])cc1)Nc1nnc(C2CC2)s1	4.33
N#C/C(=C(/O)COc1cccc2ccccc12)c1nc2ccccc2[nH]1	2.21
Cn1cnnc1SCCNS(=O)(=O)c1cccc([N+](=O)[O-])c1	2.39

SMILES	hERG current change (%, negative = inhibition) at 10uM [%]
Cc1cc2c3c(c1)C(C)CC(C)(C)N3C(=O)C2=C(C#N)C#N (centres unmarked)	14.1
CC(C)(C)c1ccc(C(=O)OCC(=O)Nc2sc3c(c2C#N)CCC3)cc1	-12.4
O=C(O)CC(NS(=O)(=O)c1cccc2nsnc12)c1ccc(F)cc1 (centres unmarked)	-17.2
CCc1nn(CC(=O)NCCCN(CC)Cc2ccccc2)c(=O)c2cc3sccc3n12	-50.2
CN(CCc1ccccn1)C(=O)Nc1cc(Cl)cc(Cl)c1	-40
Cc1ccc(C(=O)NCC(=O)NCC(=O)OCc2ccc(F)cc2)cc1	6.83
CC(C)CCNS(=O)(=O)c1ccc(-c2ccc(S(=O)(=O)NCCC(C)C)cc2)cc1	17.4
COc1cccc(-c2cc(C(=O)NCc3ccco3)c3ccccc3n2)c1	-18.7
CCc1ccc(OCC(=O)Nc2nnc(C3CCCC3)s2)cc1	14.2
Cc1cc(C(=O)CN2C(=O)NC3(CCCCC3C)C2=O)c(C)n1Cc1cccs1 (centres unmarked)	-6.58
CCOC(=O)COc1cc(N)c(Cl)cc1Cl	4.53
CCCOc1ccc(Br)cc1/C=N/NC(=O)c1cc(OC)c(OC)c(OC)c1	5.28
COc1cc2c(cc1OC)CN(C(=O)c1ccc3[nH]c(C)c(C)c3c1)CC2	-7.61
CN(C)S(=O)(=O)N1CCC(Oc2ccc(C(=O)NCCc3cscn3)cc2)CC1	0.0832
COC(=O)C1=C(C)NC(=O)NC1c1ccc(-c2ccccc2Cl)o1 (centres unmarked)	29.2
CCOc1ccc(OCCCC(=O)NC2=NCCS2)cc1	16.9
COc1ccc(N(CC(=O)NCCSCc2cccc(Cl)c2)S(C)(=O)=O)cc1	-20.7
O=C(Nc1nnc(S(=O)(=O)N2CCOCC2)s1)c1ccccc1Br	4.05
CSC(=O)NC(=O)NC(=O)c1ccc([N+](=O)[O-])cc1	15.6
COc1ccccc1C1CC(c2cccc(NS(C)(=O)=O)c2)=NN1S(=O)(=O)c1ccccc1 (centres unmarked)	3.08
Cn1c(SCC(=O)NNC(=S)Nc2ccccc2)nnc1-c1ccccc1	17.5
Cc1ccc(NC(=S)NNC(=O)c2nnn(-c3ccccc3)c2C)cc1	4.82

SMILES	hERG current change (%, negative = inhibition) at 10uM [%]
CN(C)CCCNCC(=O)c1c(-c2ccccc2)n(C)c2ccccc12.O=C(O)C(=O)O	-16
CC(=O)c1cccc(NC(=O)CCCNC(=O)c2ccc(Cl)cc2)c1	2.99
COc1ccc(Cc2nc3ccc(C(=O)NC(C)C)cc3o2)cc1	9.7
COc1cccc(C(C(=O)NC(C)(C)C)N(C(=O)CCC(=O)Nc2cc(C)on2)C2CC2)c1OC (centres unmarked)	14.9
CCCc1cc(-c2nc(N)ncc2-c2csc(C)n2)c(O)cc1OC	-9.9
COc1ccc(CCNC(=O)c2nnn(-c3cc(C)cc(C)c3)c2N)cc1OC	-10.8
COc1ccc(CNC(=O)CN2C(=O)NC(C)(c3cccc(Br)c3)C2=O)cc1 (centres unmarked)	-0.0132
CC(C)(C)C(=O)N=C1SC2CS(=O)(=O)CC2N1c1ccc2c(c1)OCO2 (centres unmarked)	-17.6
O=C(NCc1ccc(F)cc1)C1CCCN(c2cnccn2)C1 (centres unmarked)	-65
COC(=O)c1ccc(NC(=O)CC[NH+]2CCCCC2)cc1.[Cl-]	-16.3
O=C(N1CCN(c2ccccc2F)CC1)C1(c2cccs2)CCOCC1	3.18
CCC(OC(=O)c1cc2sccc2n1C)C(=O)NCc1ccco1 (centres unmarked)	-17.5
COc1ccc(CCNC(=O)CCC(=O)n2ncc3cc(C)ccc32)cc1OC	-1.2
CCOC(=O)c1oc2cc(O)ccc2c(=O)c1-c1ccccc1OC	2.03
COc1ccc(C2C(C(=O)c3sc(C)nc3C)=C(O)C(=O)N2CCN(C)C)cc1OC (centres unmarked)	11.8
COC(=O)[C@@]12CCCCN1[C@H](c1ccc(-c3ccc(F)cc3)cc1)[C@@H]1C(=O)N(C)C(=O)[C@@H]12.O=C(O)C(F)(F)F	-27.1
Cn1c(CN2CCCC2)nc2cc(NC(=O)Nc3ccccc3)ccc21	-8.85
C/C(=N\NC(=O)c1nonc1N)c1cccs1	4.26
COc1ccc(NC(=O)c2ccc(COc3ccccc3Br)o2)cc1OC	0.369
Cc1ccc([N+](=O)[O-])cc1S(=O)(=O)Nc1ccc(-c2ccc(N3CCCC3)nn2)cc1	-10.4
CCOc1ccc2nc(NC(=O)c3ccc(OC)c(S(=O)(=O)N4CCOCC4)c3)sc2c1	-23.3
COc1ccc(C(=O)NC(CC(C)C)C(=O)O)cc1 (centres unmarked)	6.81

SMILES	hERG current change (%, negative = inhibition) at 10uM [%]
O=C(O)CCC(=O)N1CCN(c2ncccc2C(F)(F)F)CC1	9.74
COc1ccc(C(=O)NC(=S)Nc2ccc3[nH]c(=O)[nH]c3c2)c(OC)c1	5.35
O=[N+]([O-])c1ccccc1N/N=C\c1ccccc1Cl	21.6
O=C(NC(O)C(=O)c1ccccc1)c1ccc(F)cc1 (centres unmarked)	16.6
CCCNC(=O)c1ccccc1NC(=O)C1=CSCCO1	3.83
CCc1nc2nc(C)c(NS(=O)(=O)c3ccc(Cl)s3)c(=O)n2[nH]1	20.7
COc1cc(OC)c2c(C)c(Cl)c(=O)oc2c1	14.3
CC(C)(C)c1cc(CCC(=O)NNC(=O)c2ccco2)cc(C(C)(C)C)c1O	-19.1
CC(=O)N1N=C2C3CCN(CC3)C2C1c1ccc(Br)cc1 (centres unmarked)	4.62
O=C(/C(=C/O)N=Nc1ccc(Cl)cc1)c1ccncc1	4.31
CC(=O)N1N=C(c2ccc(C)cc2)CC1c1ccc2c(c1)OCO2 (centres unmarked)	-30.1
O=C(COc1cccc(Cl)c1)Nc1ccccc1N1CCCCC1	7.23
O=C1C(=O)N(Cc2cccnc2)C(c2cccc([N+](=O)[O-])c2)/C1=C(\O)c1ccc2c(c1)OCCO2 (centres unmarked)	3.48
Cn1nc(-c2ccccc2)c(CSc2ccccc2)c1Cl	5.8
Cc1cccc(C(=O)NC2CCCc3ccccc32)c1 (centres unmarked)	-12.5
CCN1CCN(C(=O)c2ccc(CNS(=O)(=O)c3cccc(OC)c3)cc2)CC1	40.7
O=C(Cc1cccc2ccccc12)Nc1nc2ccccc2[nH]1	-2.01
Cc1ccc(S(=O)(=O)N/N=C/c2cccc3nccnc23)cc1	8.95
O=C(CSc1nc(-c2ccccc2)cc(=O)[nH]1)Nc1ccccn1	11.2
COC(=O)COc1ccc2c(c1C)O/C(=C\c1ccco1)C2=O	-0.317
